Hit rate of the full screen: of about 340,000 compounds, about 6,900 (2%) were called active. Rule as the data show it: active = inhibition above about 30%; inactive = below that, where a call was filed. This is a selection; strong and weak results do not stand in their true shares. Entries without a call were filed so in the source.
What follows are compounds tested against D(2) dopamine receptor (Homo sapiens) (UniProt P14416) (assay: HTS Assay for Allosteric Antagonists of the Human D2 Dopamine Receptor: Primary Screen for Antagonists). Conditions: HEK293 TREx D2 cells, calcium flux, dopamine EC80; at 10 µM; stronger effect = higher value.
In short: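 Overnight-induced (tetracycline, 30 C) HEK293 T-REx cells carrying force-coupled D2 receive a no-wash calcium dye, then compound, then EC80 dopamine at 180 s; signals are read kinetically throughout.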
Also: 0% is about no effect.

Sequence of UniProt P14416 (P14416 whole entry, looked up): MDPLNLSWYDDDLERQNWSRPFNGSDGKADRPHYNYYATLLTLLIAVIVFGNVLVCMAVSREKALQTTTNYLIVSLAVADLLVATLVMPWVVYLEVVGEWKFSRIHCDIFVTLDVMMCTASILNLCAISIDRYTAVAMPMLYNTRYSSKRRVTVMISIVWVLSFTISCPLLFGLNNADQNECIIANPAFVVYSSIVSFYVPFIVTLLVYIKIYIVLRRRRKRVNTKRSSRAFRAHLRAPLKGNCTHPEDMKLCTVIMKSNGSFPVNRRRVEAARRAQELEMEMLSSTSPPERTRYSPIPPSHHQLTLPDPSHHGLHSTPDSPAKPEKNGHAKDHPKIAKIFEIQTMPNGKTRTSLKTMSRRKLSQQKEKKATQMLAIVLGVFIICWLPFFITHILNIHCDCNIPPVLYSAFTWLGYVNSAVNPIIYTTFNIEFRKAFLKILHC

Structure (SMILES) | inhibition
COc1ccc(OC)c(NC(=O)CSC2=Nc3ccccc3C3=NC(CC(=O)NCc4ccc(F)cc4)C(=O)N23)c1 (stereo not given) | 16.5%
COc1ccc(C2CC(=O)c3c([nH]c(C(=O)OC4CCCCCC4)c3C)C2)cc1 (stereo not given) | 21%
COc1cccc(OCC(=O)NC2CC(=O)N(c3ccc4c(c3)OCCO4)C2)c1 (stereo not given) | -19%
O=C(OCc1ccco1)c1ccc2c(c1)N(Cc1cccc(F)c1)C(=O)c1ccccc1S2 | -15%
COCCSc1ccccc1C(=O)NCC1CCCO1 (stereo not given) | active: 34.4%
COc1ccc(Br)c(C(=O)Nc2cc3c(cc2N2CCCC2)n(C)c(=O)c(=O)n3C)c1 | -9.36%
CCOc1ccccc1NC(=O)CC(c1ccc(F)cc1)N1Cc2ccccc2C1=O (stereo not given) | 10.6%
Cc1ccc(-c2cc(C(=O)OCC(=O)c3ccccc3)c3cccc(Cl)c3n2)cc1 | -4.09%
CCC(Sc1nc2ccccc2c2nc(CCn3c(C)nc4ccccc43)nn12)C(=O)Nc1ccc(F)cc1 (stereo not given) | -17%
O=C(c1ccc(Cl)cc1)c1coc2ccc(O)cc12 | active: 34.7%
O=C(CSc1c2c(nc3ccc(Cl)cc13)CCCC2)NCc1ccccc1Cl | 19.6%
COc1ccc(CCNC(=O)c2cc(=O)c3cc(C)cc(C)c3o2)cc1OC | -5.01%
COc1ccc(OCCn2nnc3sc4c(c3c2=O)CCC(C(C)(C)C)C4)cc1 (stereo not given) | 17%
CC1CCN(c2nc3c(-c4cccc(Br)c4)nnn3c3ccccc23)CC1 | -14.1%
CCc1cccc(NC(=O)COC(=O)/C=C/c2cccs2)c1 | active: 31.2%
CCc1ccc(-n2nc3cc(C)c(NC(=O)c4ccccc4C)cc3n2)cc1 | 3.48%
CCOc1ccc(-c2c(C)nn3c(C)c(C(=O)NCc4ccc(Cl)cc4)cnc23)cc1OCC | -13.1%
CCC(NC(=O)Nc1cc(Cl)ccc1OC)c1c(-n2cccc2)sc2c1CCN(C)C2 (stereo not given) | -4.23%
CCCCCn1c(=O)[nH]c2cc(C(=O)NCCN(C)CCCC)ccc2c1=O | -13.9%
COc1ccc(CNC(=O)CCc2c(C)nn(-c3ccc(N4CCCCC4)nn3)c2C)cc1 | 0.846%

Structure (SMILES) | inhibition
COc1ccccc1N1CCN(CC(O)COc2ccc3c(c2)CCC3)CC1 (stereo not given) | active: 80.2%
CCN(CC)CCCNC(=S)N1CCN(c2nc3ccccc3n2CC)CC1 | active: 47.7%
CCCCNC(=O)c1cccc(-n2cnc3cccnc32)c1C | 8.59%
CC1CCCCN1C(=O)c1ccc2c(c1)N(Cc1cccc(Cl)c1)C(=O)c1ccccc1S2=O (stereo not given) | 7.62%
CC1CC(OCC(O)CN2CCOCC2)CC(C)(C)C1 (stereo not given) | active: 45.8%
Cc1cc(N(C)Cc2ccccc2)n2nc(-c3ccc(C(C)(C)C)cc3)nc2n1 | -1.28%
CCc1cccc(NC(=O)Cn2c(=O)c(C(F)(F)F)nc3ccccc32)c1 | -0.637%
Cc1cccc(CSc2nc3cc(C(=O)NC4CCCC4)ccc3c(=O)n2Cc2ccccc2)c1 | -11.8%
Cc1cc(C)c2c(=O)cc(C(=O)Nc3nc4ccc(F)cc4s3)oc2c1 | -0.698%
CCCN(CCC)CC(O)Cn1cc(/C=C/C(=O)c2ccc(OC)cc2)c2ccccc21 (stereo not given) | 16.8%
CCC(CC)C(=O)Nc1c(C(=O)N2CCN(c3ccccc3)CC2)oc2ccccc12 | -28.6%
COc1cccc(-c2cc(C(=O)N3CCN(c4ccccc4OC)CC3)no2)c1 | 2.79%
CCc1ccc(NC(=O)c2sc3nc4c(cc3c2N)CN(CC)CC4)cc1 | -10.2%
COc1ccc(Cl)cc1NC(=O)Cc1coc2c(C)c(C)ccc12 | 4.22%
Cc1ccccc1NC(=O)c1ccc(NC(=O)c2ccco2)cc1 | active: 44.8%
COC(=O)c1ccc(NC(=O)CCc2c(C)nn(-c3ccc(N4CCOCC4)nn3)c2C)cc1 | 2.4%
O=C(Nc1ccc(F)cc1)c1ccc(Cn2nc(N3CCN(c4ccccc4)CC3)ccc2=O)o1 | -2.22%
COc1ccc(CCNc2nc(-c3ccc(Cl)cc3)cc(C(F)(F)F)n2)cc1OC | 15.3%
CCOC(=O)c1c(C)[nH]c(C)c1S(=O)(=O)N1CCC(C(=O)N2CCN(c3cccc(C)c3C)CC2)CC1 | 5.47%
COc1ccccc1-c1nc2c(c(SCc3ccc(F)cc3Cl)n1)Cc1c(CO)cnc(C)c1O2 | -2.84%

Structure (SMILES) | inhibition
COc1ccccc1C(=O)Nc1c(C(=O)N2CCN(c3ccc(F)cc3)CC2)oc2ccccc12 | -9.7%
Cc1ccc2c(=O)cc(C(=O)N(Cc3ccccc3Cl)C3CCS(=O)(=O)C3)oc2c1 (stereo not given) | 6.49%
CCN1CCN(CCCNC(=O)Cn2c(-c3cccs3)cc3ccccc32)CC1 | -4.63%
COc1ccc(-c2cc(-c3ccccc3)c(C#N)c(SCC(O)CS(=O)(=O)Cc3ccccc3)n2)cc1 (stereo not given) | -1.24%
CC(O)CNC(=O)C(=O)Nc1c2c(nn1-c1ccc(Cl)cc1)CSC2 (stereo not given) | 10.6%
COc1ccc(NC(=O)C2CCCN(C(=O)c3cnn(-c4ccccc4)c3-n3cccc3)C2)cc1 (stereo not given) | 2.94%
CCOc1ccc(CCNC(=O)CS(=O)(=O)Cc2nc(-c3cccc(Cl)c3)oc2C)cc1 | -6.81%
COc1cc(Br)cc(/C=N/N(CCO)C2=NS(=O)(=O)c3ccccc32)c1OC | active: 38%
Cc1ccc(C)c(NC(=O)Cn2c(=O)n(-c3ccccc3C)c(=O)c3c2c2cc(C)ccc2n3C)c1 | -7.1%
CC(C)n1cc2c(c1-c1ccccc1Cl)c(=O)n(C)c(=O)n2C | -3.4%
Cc1cccc(C(=O)Nc2cccc(OCc3cc(=O)n4cc(C)sc4n3)c2)c1 | -18.2%
Cc1ccc(C(C)C)c(OCC(=O)NCC2(N3CCOCC3)CCCCC2)c1 | -15.1%
Cc1ccc(-n2cc3c(c2-c2ccccc2Br)c(=O)n(C)c(=O)n3C)cc1N | 2.25%
Cc1ccc(C(=O)NCC(=O)OCc2cc(=O)n3c(C)csc3n2)cc1 | 10.9%
Cc1ccc(-n2nc3cc(C)c(NC(=O)COc4ccccc4)cc3n2)cc1 | 0.174%
CCOC(=O)CCN(c1ccccc1)S(=O)(=O)c1cc(-c2cc(C)no2)ccc1C | -3.3%
Cc1cn(C)c(CC(=O)N2CCN(c3cccc(C(F)(F)F)c3)CC2)c1C(=O)O | -6.92%
CCc1cc2c(cc3c(=O)n(CC(=O)NC4CCCCC4)nc(CC)n32)s1 | -7.84%
O=C(NCC(c1cccnc1)N1CCc2ccccc21)c1ccc(F)c(F)c1 (stereo not given) | 20.1%
Cc1cc(C)c2oc(C(=O)Nc3c(C)n(C)n(-c4ccccc4)c3=O)cc(=O)c2c1 | 0.151%
